From patent US11760795B2, “Monoclonal antibodies to growth and differentiation factor 15 (GDF-15), and uses thereof for treating cancer cachexia and cancer” (JULIUS-MAXIMILIANS-UNIVERSITÄT WÜRZBURG, priority 2014, dated 2023)

Key:
[1] = Study No. 140123: body weight of UACC-257 inoculated mice (cancer-induced weight loss); format: in vivo, Balb/c^nu/nu mice; details: 38 days
Method: FIG. 5: Treatment of cancer cachexia with anti-GDF-15 antibodies. […] The changes of the body weight are depicted in percent as compared to the starting body weight on day 0, for a period of 38 days.
(§1) Treatment of cancer-induced weight loss with anti-GDF-15 antibodies. In the underlying animal study No. 140123, 10 Balb/c^nu/nu mice per treatment group were subcutaneously inoculated with 10×10^6 UACC-257 cells per animal in a 1:1 volume ratio with matrigel (100 μl cells+100 μl matrigel). The animals were treated on the same day with the respective antibodies, as indicated below:
The study was carried out in a double-blinded manner for the treatment with the antibodies and for the treatment with PBS.

[2] = Protein A elution at physiological pH and 10 fold concentration via spin columns, turbidity; format: physicochemical; details: TRIS Buffer at physiological pH, from 0.5 mg/ml
Method: FIG. 7: Improved solubility of the chimeric and the humanized antibody at physiological pH.
5 mg of antibody (B1-23, chimeric B1-23=“ChimB1-23”, H1L5) were loaded on Proteus™ protein A columns, eluted and collected in a TRIS Buffer at physiological pH. After elution, the quality of the purified antibodies was assessed by Coomassie Brilliant Blue gel analysis. The concentration of the eluted antibodies was measured photometrically as well as in a Bradford assay (Roti-Quant, Carl Roth, Karlsruhe, Germany). […] The antibodies were then 10 fold concentrated via spin columns (Centricon, MWCO 30). […] All concentrated eluates were then centrifuged for 5 min at 13000 rpm in order to precipitate antibody aggregates. The remaining amount of soluble antibodies was finally determined via Bradford assay from the supernatant.

human GDF-15 = target: T1, human GDF-15 (Homo sapiens, UniProt Q99988); assay: Kd determination by Surface Acoustic Wave (SAW) gold chip biosensors; format: binding
T1 sequence (Q99988 with tags, fused parts or gaps limits assumed): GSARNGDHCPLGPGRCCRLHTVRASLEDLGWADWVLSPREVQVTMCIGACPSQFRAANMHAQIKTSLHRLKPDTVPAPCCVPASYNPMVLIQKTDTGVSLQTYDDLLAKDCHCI
Source text: Determination of Kd values of anti-GDF-15 antibodies. The Kd values of different anti-GDF-15 antibodies were compared using Surface Acoustic Wave (SAW) gold chip biosensors technology (SAW Instruments GmbH, Schwertberger Str. 16, D-53177 Bonn, Germany):
The murine antibody (B1-23) as well as the chimeric B1-23 antibody were present in purified form. The H1L5 humanized B1-23 antibody was a serum-free CHO cell culture supernatant.

hrGDF-15 = target: T2, hrGDF-15 (Homo sapiens, UniProt Q99988); assay: Colorimetric ELISA binding to coated hrGDF-15; details: serial 1:3 dilution from 333 ng/ml; in comparison to B12
T2 sequence (Q99988 with tags, fused parts or gaps limits assumed): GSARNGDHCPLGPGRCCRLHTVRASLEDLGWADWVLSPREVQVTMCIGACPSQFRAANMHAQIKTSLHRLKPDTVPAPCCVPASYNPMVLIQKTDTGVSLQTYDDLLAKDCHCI
Method: Additionally, by using a colorimetric assay, it was confirmed that all anti-GDF-15 antibodies used in the study bound to GDF-15 in a concentration-dependent manner. To determine the binding of B1-23 antibody variants to GDF-15, a […] ELISA experiment was performed. […] Therefore, Maxisorp 96 well plates (Nunc) were coated with hrGDF-15 (25 ng protein per well, 50 μl volume) over night at 4° C. The following day, plates were washed to remove unbound protein (3 times with 150 μl of PBS 0.05% Tween®) and non-specific binding sites were blocked with 150 μl of PBS 1% BSA for 2 hours at room temperature. Again, plates were washed and different variants of B1-23 test antibodies were applied (50 μl volume). To inquire specificity of the antibody binding, endpoint dilution was performed starting from 333 ng/ml and 1:3 serial dilution. As background control, PBS 1% BSA was applied. Following binding for 1 hour at room temperature, wells were washed as described above. As secondary antibody HRP conjugated Anti-human IgG (Life technologies, 1:5000) was applied for 1 hour at room temperature. Wells were washed as described above to remove unbound secondary antibody. […] For analysis, optical density at 450 nm was quantified using the ELISA reader (Tecan Sunrise) and the corresponding Magellan software.

[3] = Study No. 140123: feed consumption of UACC-257 inoculated mice; format: in vivo, Balb/c^nu/nu mice
Method: as §1
In addition to evaluating the mean body weight of the mice, the feed consumption of the mice was evaluated by pairwise comparisons of the study groups (Table 1).

affinity to human GDF-15 relative to murine B1-23 (human GDF-15): about 2 fold
binding to GDF-15 in ELISA (hrGDF-15): clearly concentration-dependent binding
B1: Chimeric B1-23: murine variable domains, human IgG1 constant domains (trastuzumab backbone); heavy chain SEQ ID No: 33, light chain SEQ ID No: 36 (antibody)
heavy: QVKLQQSGPGILQSSQTLSLTCSFSGFSLSTSGMGVSWIRQPSGKGLEWLAHIYWDDDKRYNPTLKSRLTISKDPSRNQVFLKITSVDTADTATYYCARSSYGAMDYWGQGTSVTVSS[in this place human IgG1 constant region]
light: DIVLTQSPKFMSTSVGDRVSVTCKASQNVGTNVAWFLQKPGQSPKALIYSASYRYSGVPDRFTGSGSGTDFTLTISNVQSEDLAEYFCQQYNNFPYTFGGGTKLEIKRTVAAPSVFIFPPSDEQLKSGTASVVCLLNNFYPREAKVQWKVDNALQSGNSQESVTEQDSKDSTYSLSSTLTLSKADYEKHKVYACEVTHQGLSSPVTKSFNRGEC
modifications: amino acid sequence of the heavy chain of the chimeric B1-23 anti-GDF-15 antibody; amino acid sequence of the light chain of the chimeric B1-23 anti-GDF-15 antibody
body weight change compared to day 0 [1]: increase in body weight
aggregation after 10 fold concentration [2]: no signs of aggregation
Feed consumption per mouse and day ([3]; average over day 17-34 intervals, with standard deviation): 3.5 ± 0.2 g
feed consumption compared with groups which did not receive the anti-GDF-15 antibodies ([3]; mouse, in vivo): significantly higher
